Assay results taken from PubChem BioAssay AID686978 (National Center for Advancing Translational Sciences (NCATS), 2013).
Where “and” joins values, the source holds several entries; their conditions need not be identical. Equal values may be shown once. Screen size: about 420,000 compounds; about 64,000 (15%) were called active. Inconclusive results, whose numbers are uncertain, are shown with a selection of clear calls. Calls come from the whole dose curve; as a rule, active = well fitted inhibition curve with a large enough effect; inconclusive = small, poorly fitted or top-dose-only effect; inactive = flat fitted curve, though single readings scatter. No potency is given beside an inconclusive call; the fits are too rough. A structure can be active in one record and inactive in another.

Test: qHTS for Inhibitors of human tyrosyl-DNA phosphodiesterase 1 (TDP1): qHTS in cells in absence of CPT; note: nearly all actives have a fitted effect of over 55% in size
Settings: DT40 Tdp1-/- hTDP1 cells, no CPT, ATP luminescence, 48 h; activity change, negative = growth inhibition: at 46.2 µM (top of the series) unless noted
Method in brief: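 Cells were dispensed at 400 per well, compounds added by pin tool, plates incubated ≥48 hr at 37 °C, then CellTiter-Glo added for 30 min at room temperature before luminescence reading. Line: DT40 Tdp1-/- complemented with hTDP1; camptothecin omitted.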
% is set by controls: 0 for no effect and ±100 for the full control effect; potency is the fitted concentration of half-maximal effect; tags give direction and shape of the fitted curve.

Structure (SMILES)	Potency	activity change, negative = growth inhibition
C[C@@]12C(=O)Nc3ccc(F)cc3C(=O)N1[C@H]1c3cc(Cl)ccc3OC[C@@H]1[C@@H]2c1ccccc1	inconclusive [inhibitor, single point]	–
COc1cccc(CNS(=O)(=O)c2c(C)[nH]c(C)c2C(=O)N2CCCCC2)c1	inconclusive [inhibitor, single point]	–
O=C(CSc1nnc(CNc2ccccc2)o1)N1CCc2ccccc21	inactive	–
O=C(N/N=C/c1cc(Br)c(O)c(Br)c1)c1cc2c(ccc3ccccc32)o1	inconclusive [inhibitor, single point]	–
CCOC(=O)COn1c(-n2nc(C)cc2C)nc2ccccc2c1=O	active: 25.9 µM	–
CCc1ccnc(NS(=O)(=O)c2ccc3c(c2)CCO3)c1	inactive	–
Cc1nn(C)cc1CN(C)C(=O)c1nn2c(c1Cl)NC(c1cccs1)CC2C(F)(F)F (centres undefined)	active: 12.6 µM	–
O=S(=O)(Cc1ccc(Cl)cc1)Oc1ccc(Cl)cc1	inconclusive [inhibitor, single point]	–
Cc1noc(/C=C/N(C)C)c1S(=O)(=O)N1CCCC(C(=O)Nc2cccc(F)c2)C1 (centres undefined)	inconclusive [inhibitor, single point]	–
CCc1ccc(C(=O)Nc2ccc3c(c2)n(C)c(=O)n3C)cc1	inconclusive [inhibitor, single point]	–
CCN(CC)CCc1nc(-c2ccccc2)no1	inactive and active: 4.11 µM	–
CCOC(=O)N1CCC(N(CCN(C)C)C(=S)Nc2cc(Cl)cc(Cl)c2)CC1	inactive	–
Cn1c(C(=O)N/N=C/c2ccccc2)cc2ccccc21	–	inconclusive: -32.4% [inhibitor]
CCc1ccc(OCC(=O)NC(NC(=S)Nc2ccccc2OC)C(Cl)(Cl)Cl)cc1 (centres undefined)	inconclusive [inhibitor, single point]	–
NC(=O)C1CCCN1Cc1ccc2c(c1)OCO2 (centres undefined)	inactive	–
CC(Oc1ccccc1)C(=O)N1CCC2(CC1)Oc1ccc(F)cc1C(=O)C21CC(c2ccc(Cl)cc2)=NO1 (centres undefined)	inactive	–
O=C(NCc1cccc(C(F)(F)F)c1)c1c[nH]c(=O)s1	inactive	–
Cc1ccc(S(=O)(=O)NCCc2ccncc2)cc1	inactive	–
COc1ccccc1N1CCN(Cc2ccc(OC)c(OC)c2OC)CC1	inconclusive [inhibitor, partial curve, poor fit]	–
N#Cc1nc2ccccc2n1OCc1ccccc1	inconclusive [inhibitor, single point]	–
COc1ccc(NC(=O)NNC(=O)COc2ccc([N+](=O)[O-])c(C)c2)cc1OC	inactive	–
c1csc(-c2nc3c4ccccc4c4ccccc4c3[nH]2)c1	inconclusive [inhibitor, single point]	–
C=CCc1cc(/C=C2/NC(=O)NC2=O)cc(OCC)c1O	inconclusive [inhibitor, single point]	–
COc1ccc(CCN(C)CC(=O)Nc2ccc(F)c(Cl)c2)cc1OC	inconclusive [inhibitor, single point]	–
COC(=O)C1=C(C)N(CCc2c[nH]c3ccccc23)C(=O)/C1=C\N(C)C	inconclusive [inhibitor, partial curve]	–

Structure (SMILES)	Potency	activity change, negative = growth inhibition
O=C(Nc1ccc(-n2ccc(C(F)(F)F)n2)cc1)c1cccs1	inactive	–
CCc1cnc(Nc2nc(C(N)Cc3ccc(Cl)cc3)cs2)nc1 (centres undefined)	inconclusive [inhibitor, single point]	–
CC1=CCC2CC1C2(C)C (centres undefined)	inactive	–
CCc1ccc(-n2nc3ccc(NC(=O)c4cc5ccccc5o4)cc3n2)cc1	active: 4.61 µM	–
Cc1ccc(CNC(=O)c2cn(C)c3ccc(S(=O)(=O)N(C)C4CCCCC4)cc3c2=O)cc1	inconclusive [inhibitor, single point]	–
CC(C)CCNC(=O)c1cc(S(=O)(=O)N2CCC3(CC2)OCCO3)ccc1F	inconclusive [inhibitor, single point]	–
Cc1ccc(CNC(=O)c2nc(SCc3cccc(C)c3)ncc2Cl)cc1	inconclusive [inhibitor, partial curve]	–
COc1ccc(S(=O)(=O)NCCSc2ccc(C)cc2)cc1OC	inconclusive [inhibitor, partial curve, poor fit]	–
CC(OC(=O)c1ccc2ncsc2c1)C(=O)NC1CCCCC1C (centres undefined)	inconclusive [inhibitor, single point]	–
CC(C)(C)C(=O)/C(=C/c1ccc(Cl)cc1)n1cncn1	active: 5.17 µM	–
COC(=O)/C=C1/SC(=Nc2ccc(C)cc2C)NC1=O	inconclusive [inhibitor, single point]	–
CCOCCOC(=O)c1[nH]c2c(c1C)C(=O)CC(c1ccc(N(C)C)cc1)C2 (centres undefined)	inconclusive [inhibitor, single point]	–
COc1cccc(-n2c(C)nc3c(cnn3-c3ccc(Cl)cc3)c2=O)c1	active: 7.31 µM	–
COc1cccc(/C=C2\Sc3ccc(C(=O)NCc4cccnc4)cc3N(C)C2=O)c1	inconclusive [inhibitor, single point]	–
Cc1ccc(C(=O)Nc2ccc(N3CCCC3)cc2)c(C)c1	inconclusive [inhibitor, single point]	–
CC(=O)c1ccc(N2CCN(C(=O)c3ccc4c(c3)OCO4)CC2)cc1	inconclusive [inhibitor, single point]	–
CCOc1ccc(N2C(=O)CC(Sc3nc(O)c(CC)c(=O)[nH]3)C2=O)cc1 (centres undefined)	inactive	–
CN(Cc1cnn(-c2ccc(F)cc2)c1)Cc1nc(Cc2ccccc2)no1	inactive	–
CC(C)(C)c1ccc(-c2n[nH]c(=S)n2/N=C/c2ccncc2)cc1	inconclusive [inhibitor, partial curve, poor fit]	–
Cc1cc(N2CCOCC2)nc2ccc(Cl)cc12	inconclusive [inhibitor, single point]	–
Nc1cc(C(=O)c2ccccc2)ccc1N1CCOCC1	inconclusive [inhibitor, partial curve, poor fit]	–
Cc1cnc(NC(=O)c2ccc(F)c(S(=O)(=O)N3CCOCC3)c2)s1	inconclusive [inhibitor, partial curve, poor fit]	–
CC1CCC(NC(=O)c2cccc(S(=O)(=O)NCc3ccccc3)c2)CC1 (centres undefined)	–	inconclusive: -31.4% [inhibitor]
N#CC(=C1C=C(Br)C(=NO)C=C1Cl)c1ccc(Cl)cc1	active: 2.59 µM	–
Cn1nc(CC(=O)NC2CCCCCCCCCCC2)c2ccccc2c1=O	active: 18.4 µM	–

Structure (SMILES)	Potency	activity change, negative = growth inhibition
CCc1ccc(OCC2c3cc(OC)c(OC)cc3CCN2C(=S)NC)cc1 (centres undefined)	inconclusive [inhibitor, single point]	–
COC(=O)C(C)N1C(=O)S/C(=C/c2cc(C)n(-c3ccccn3)c2C)C1=O (centres undefined)	active: 16.4 µM	–
CCN(Cc1ccc(OC)cc1)c1ccc(-c2nc(-c3ccncc3)no2)cc1[N+](=O)[O-]	inconclusive [inhibitor, single point]	–
CCCCn1c(N)c(N(CC(C)C)C(=O)c2ccc(S(=O)(=O)N3CCCCC3)cc2)c(=O)[nH]c1=O	inactive	–
CCC(=O)N1CCc2cc(S(=O)(=O)CCC(=O)N3CCN(c4cccc(C)c4)C(C)C3)ccc21 (centres undefined)	active: 4.61 µM	–
COCCCNC(=O)Cn1nnc(-c2ccc(NC(=O)c3ccccc3F)cc2)n1	inconclusive [inhibitor, partial curve, poor fit]	–
COC(=O)C(Cc1c[nH]c2ccccc12)NC(=O)C1CC1 (centres undefined)	inactive	–
Cc1nn(CC(=O)NCc2ccccn2)c(C)c1[N+](=O)[O-]	inactive	–
O=C(CCC(=O)N1CCN(S(=O)(=O)c2ccc(Cl)cc2)CC1)NC1CCCc2ccccc21 (centres undefined)	inconclusive [inhibitor, single point]	–
O=C(Nc1nnc(-c2ccco2)o1)c1ccc(S(=O)(=O)N2CCCC2)cc1	inconclusive [inhibitor, single point]	–
CCCCNS(=O)(=O)c1ccc(OC)c2ncccc12	inactive	–
CC(C)(C)N1CC23C=CC(C[C@@H]2C1=O)O3 (some centres undefined)	inactive	–
COCCNc1nc(C(C)(C)C)nc2c1nnn2Cc1ccccc1Cl	–	inconclusive: -32.5% [inhibitor]
Cc1ccccc1Nc1c(-c2ccsc2)nc2c(C)cccn12	active: 20.6 µM	–
O=C(NCCc1ccccc1)c1ccc(Cn2c(SCc3ccc(F)cc3)nc3cccnc32)cc1	inactive	–
CCN(C(=O)COC(=O)CCCc1c[nH]c2ccccc12)c1c(N)n(Cc2ccccc2)c(=O)[nH]c1=O	inactive	–
CCOc1c(CNCCNC(=O)c2nonc2N)cccc1OC	inactive	–
CC(C)NC(=O)C1(C)CN(S(C)(=O)=O)CC(=O)N1CCc1ccccc1 (centres undefined)	inactive	–
CCN(CC)c1ccc(/C=N/N2CCN(c3ccccc3OC)CC2)cc1	inconclusive [inhibitor, partial curve, poor fit]	–
CCOC(=O)Cc1csc(NC(=O)c2cc(C)on2)n1	inactive	–
CN(C)CCNC(=O)c1cc2c(s1)-c1ccc(Cl)cc1SC2	active: 8.2 µM	–
CC(C)Cn1c(=O)c2ccccc2n2c(-c3ccc(Br)cc3)nnc12	inconclusive [inhibitor, partial curve]	–
CCCCN(c1ccccc1)c1ncnc2c1cnn2-c1ccc(Cl)cc1	active: 18.4 µM	–
CC(C)(C)C(=O)[C@H]1[C@H](c2ccccc2)[C@@]2(N=C(c3ccccc3)OC2=O)C2c3ccccc3C=NN21 (some centres undefined)	inconclusive [inhibitor, single point]	–
